In patent publication US20220340685A1, “COMBINATION THERAPY WITH ENTPD2 AND CD73 ANTIBODIES” (Novartis AG, priority 2019, published 2022):

B1: mAb1: humanized anti-human ENTPD2 human IgG1 antibody derived from mAb17; heavy chain SEQ ID NO: 12, light chain SEQ ID NO: 23 (antibody)
heavy: EVQLVQSGAEVKKPGESLKISCKASGYTFTDYNMDWVRQMPGKGLEWMGDINPKYDISTYNQQFKGQVTISADKSIRTAYLQWSSLKASDTAMYYCARRGFFLYYGINYYYFDVWGQGTLVTVSSASTKGPSVFPLAPSSKSTSGGTAALGCLVKDYFPEPVTVSWNSGALTSGVHTFPAVLQSSGLYSLSSVVTVPSSSLGTQTYICNVNHKPSNTKVDKRV[left out - human IgG1 Fc]
light: DIQLTQSPSSLSASVGDRVTITCSASSSVSYIHWFQQKPGKAPKLLIYSTSNLASGVPSRFSGSGSGTFFTLTISSLQPEDFATYFCHQWSSYPWTFGQGTKVEIKRTVAAPSVFIFPPSDEQLKSGTASVVCLLNNFYPREAKVQWKVDNALQSGNSQESVTEQDSKDSTYSLSSTLTLSKADYEKHKVYACEVTHQGLSSPVTKSFNRGEC
B2: mAb6: humanized anti-human ENTPD2 antibody derived from mAb16; probably heavy chain SEQ ID NO: 72, light chain SEQ ID NO: 76 (antibody)
heavy: QVQLQESGPGLVKPSQTLSLTCTVSGYSITSGYYWNWIRQHPGKGLEWMGYISYDADNNYNPSLKNRITISRDTSKNQFSLKLSSVTAADTAVYYCAGGYYRYGLGSYSGSYYYVMDYWGQGTTVTVSSASTKGPSVFPLAPSSKSTSGGTAALGCLVKDYFPEPVTVSWNSGALTSGVHTFPAVLQSSGLYSLSSVVTVPSSSLGTQTYICNVNHKPSNTKVDKRV[left out - human IgG1 Fc]
light: DTQMTQSPSSLSVSVGDRATITCKASQSVDYEGHSYMNWYQQKPGKAPKLLIYAASNLESGVPSRFSGSGSGTDFTLTISSVQPEDFATYYCQQSNEDPPTFGGGTKLEIKRTVAAPSVFIFPPSDEQLKSGTASVVCLLNNFYPREAKVQWKVDNALQSGNSQESVTEQDSKDSTYSLSSTLTLSKADYEKHKVYACEVTHQGLSSPVTKSFNRGEC

Columns and labels:
[1] = target: T1, human ENTPD2 (Homo sapiens, UniProt Q9Y5L3); test: Biacore SPR kinetic affinity to human ENTPD2 ECD; type: binding; conditions: 25° C.; for Human ENTPD2 ka: association rate; for Human ENTPD2 kd: dissociation rate
T1 construct: residues 29-462 of human or cyno ENTPD2; GP67 signal peptide (N); made in house; host or cells: High Five (Trichoplusia ni) insect cells, baculovirus
T1 sequence (Q9Y5L3 29-462): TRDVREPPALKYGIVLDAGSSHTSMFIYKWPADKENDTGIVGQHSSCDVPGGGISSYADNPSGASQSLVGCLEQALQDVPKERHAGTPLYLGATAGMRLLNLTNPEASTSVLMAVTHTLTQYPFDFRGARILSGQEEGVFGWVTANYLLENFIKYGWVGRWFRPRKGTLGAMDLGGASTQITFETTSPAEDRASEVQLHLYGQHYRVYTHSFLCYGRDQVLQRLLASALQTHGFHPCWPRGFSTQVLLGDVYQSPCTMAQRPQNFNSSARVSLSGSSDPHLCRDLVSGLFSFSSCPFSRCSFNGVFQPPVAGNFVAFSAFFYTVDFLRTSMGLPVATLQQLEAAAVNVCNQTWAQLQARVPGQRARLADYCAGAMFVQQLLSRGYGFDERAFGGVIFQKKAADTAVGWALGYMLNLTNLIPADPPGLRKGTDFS
Experimental: (§1) Biacore Screening: Affinity was measured by determining the kinetic rate constants using surface plasmon resonance (SPR) on a Biacore T200 or T100 with the T200 sensitivity upgrade instrument (Biacore, GE Healthcare). Antibodies were captured on CM5 sensor chips (Biacore, GE Healthcare) prepared with a mouse anti-human IgG Fc antibody (ThermoFisher catalogue # 05-4200) amine coupled to the surface. […] ENTPD2 analytes were allowed to associate for 180 s and dissociate for up to 1800 s depending on the off-rate of the antibody at a flow rate of 30 μL/min. The running buffer was PBS pH 7.2 (prepared from a Corning 10X stock, cat# 46-013-CM) +0.05% Tween 20. Regeneration was accomplished with 30 s injections of 3 or 4 M MgCl2 to remove all the captured antibody and remaining complex from the surface, after which fresh antibody was captured. The raw data were analyzed using Biacore T200 Evaluation Software version 1.0 and fit to a 1:1 binding model, with all parameters set to fit globally except for RI, which was set to fit locally.

[2] = system: NIH/3T3 cells; test: Cross reactivity: FACS binding to parental NIH/3T3 control cells; conditions: 50 nM antibody
Experimental: (§2) FACS screening: Specific binding of candidate antibodies to endogenously expressed ENTPD2 was assessed by flow cytometry. Cells were rinsed thoroughly with 1× PBS and treated with Accutase (Millipore #SCR005) to lift from growth plates and resuspended at approximately 1×10^5 cells/90 μL in 1× FACS buffer (2% FBS +0.1% NaN3 in PBS). In a 96-well U-bottom plate, 10 μL of 10× antibody solution in FACS buffer was pre-seeded and 90 μL of cell suspension was added. Cell were incubated for 30 minutes at 4° C., washed 1× with cold PBS and resuspended in 100 μL of 1:500 secondary antibody 1× FACS buffer (Allophycocyanin conjugated F(ab′)2 goat anti-human IgG, Fcγ specific; Jackson Immunoresearch, Cat# 109-136-098). After additional incubation for 15 min at 4° C., cells were washed twice with PBS and resuspended in 100 μL of 1× FACS buffer with 4 μg/mL propidium iodide (Life Technologies, Cat# P3566). Geometric mean fluorescence intensity was calculated on live single cells using FlowJo software.
(§3) Cross reactivity Human ENTPD1 (NP_001767) expressing NIH/3T3 cells were generated using a retroviral transduction approach. 72hrs post transduction, engineered cells were stained with the anti-Human CD39/ENTPD1 APC-conjugated Antibody (R&D systems, Minneapolis, Minn.) and live cells that expressed human ENTPD1 were separated from the rest of the population via fluorescence activated cell sorting. Stable expression of ENTPD1 was periodically re-confirmed by FACS with the above described anti-Human CD39/ENTPD1 APC-conjugated Antibody (1:100).

[3] = system: cynomologus (cyno) ENTPD2; test: Biacore SPR kinetic affinity to cyno ENTPD2 ECD; type: binding, cynomolgus monkey; conditions: 25° C.; for Cyno ENTPD2 ka: association rate; for Cyno ENTPD2 kd: dissociation rate
Experimental: as §1

[4] = target: T2, Human ENTPD1 (NP_001767) expressing NIH/3T3 cells (Homo sapiens, UniProt P49961); test: Cross reactivity: FACS binding to human ENTPD1 expressing NIH/3T3 cells; conditions: 50 nM antibody
T2 construct: expressed in transfected cells; host or cells: NIH/3T3 (retroviral transduction, FACS-sorted)
T2 sequence (P49961 1-510): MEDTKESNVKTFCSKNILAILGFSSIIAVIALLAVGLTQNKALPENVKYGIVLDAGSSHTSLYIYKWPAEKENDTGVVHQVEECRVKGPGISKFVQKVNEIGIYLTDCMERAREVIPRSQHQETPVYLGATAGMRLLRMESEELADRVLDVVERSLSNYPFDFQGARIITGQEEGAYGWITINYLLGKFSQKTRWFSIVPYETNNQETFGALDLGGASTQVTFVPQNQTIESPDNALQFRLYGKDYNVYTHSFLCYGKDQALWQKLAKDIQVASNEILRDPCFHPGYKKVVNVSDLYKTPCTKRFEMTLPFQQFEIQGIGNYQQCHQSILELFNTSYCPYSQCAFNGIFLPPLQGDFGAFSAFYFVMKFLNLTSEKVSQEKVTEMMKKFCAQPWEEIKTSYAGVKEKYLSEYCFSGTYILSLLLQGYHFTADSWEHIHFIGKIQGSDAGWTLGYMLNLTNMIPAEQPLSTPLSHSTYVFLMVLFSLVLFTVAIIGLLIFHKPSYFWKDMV
Experimental: as §2, §3

[5] = system: human ENTPD2 engineered B16LM3 clone B5; test: Human ENTPD2 engineered B16LM3 clone B5 model, combination with anti-PD-1 Ab; type: in vivo; conditions: for Tumor Response ΔT/ΔC (%): Day 7; for anti-tumor efficacy: anti-ENTPD2 Ab i.v. day 1, anti-PD-1 Ab 10 mg/kg i.p. D1 and D5
Source text: This model was derived from the B16LM3 melanoma model, where endogenous mouse ENTPD2 expression was knocked out via a transient electroporation of CAS9 protein with CRISPR guide RNA sequences against mouse ENTPD2, and human ENTPD2 was overexpressed using a retroviral transduction approach.
Once tumors reached approximately 35-50 mm^3, mice were randomized according to tumor volume into treatment groups (n=8 per group). […] All doses were adjusted to individual mouse body weights.

[6] = single agent anti-human ENTPD2 mAb 10 mg/kg D1, no anti-PD-1 Ab

Molecule | Human ENTPD2 ka [1] [M⁻¹ s⁻¹] | Human ENTPD2 kd [1] [s⁻¹] | Apparent FACS binding at 50 nM, NIH/3T3 cells [2] | Cyno ENTPD2 ka [3] [M⁻¹ s⁻¹] | Cyno ENTPD2 kd [3] [s⁻¹] | Apparent FACS binding at 50 nM, NIH/3T3 - ENTPD1 [4] | Tumor Response ΔT/ΔC (%) [5, 6] [%] | anti-tumor efficacy [5] | Host Response Δ body weight (%) [5, 6] [%] | Host Response Survival (alive/total) [5, 6]
B1 | 110000 | 0.00019 | No binding | 360000 | 0.0012 | No binding | 71.7 | No significant anti-tumor efficacy | −0.2 | 
B2 | 350000 | 0.00026 | No binding | 290000 | 0.01 | No binding | 60.0 | No significant anti-tumor efficacy | −0.1 | 8/8
